# From ChEMBL document CHEMBL5606458, “ASAP - ZIKV NS2B-NS3 protease fluorescence single point” (2024)
# The whole screen tested about 2,700 compounds, of which about 160 (5.9%) showed an effect of 50% or more. The list shows a part of the results.
# Molecular target: Nonstructural protein 3 (Zika virus) (UniProt A0A024AXB9)
# [1] = PRVABC59, Concentration 15.0 uM, Number of replicates 1.0
# [2] = PRVABC59, Concentration 50.0 uM, Number of replicates 1.0
# [3] = PRVABC59, Concentration 10.0 uM, Number of replicates 1.0
# UniProt A0A024AXB9, sequence (A0A024AXB9 as listed by the source): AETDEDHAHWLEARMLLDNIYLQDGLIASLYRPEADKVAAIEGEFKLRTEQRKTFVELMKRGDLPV
compound,measurement,setting,value
O=C(NCCc1cc(Cl)cc(Cl)c1)c1cc(Cl)ccc1NS(=O)(=O)c1ccc(Oc2ccccc2Cl)cc1,inhibition,[1],20.6%
O=C(NCc1cc(F)ccc1Br)c1cc(Cl)ccc1NS(=O)(=O)c1ccc(Oc2ccccc2Cl)cc1,inhibition,[1],37.1%
COc1cccc(N2C[C@@H](NC(=O)c3cc(Cl)ccc3NS(=O)(=O)c3ccc(Oc4ccccc4Cl)cc3)CC2=O)c1,inhibition,[1],28.5%
Cc1cc(CO)c2cccc(C[C@H](NC(=O)C3(C(N)=O)CC3)C(=O)O)c2n1,inhibition,"PRVABC59, Concentration 49.95 uM, Number of replicates 2.0, Standard deviation 1.395044164145976 %",-7.52%
same,inhibition,"PRVABC59, Concentration 99.9 uM, Number of replicates 2.0, Standard deviation 1.2344633226203177 %",-6.53%
CC(C)(C)N(Cc1ccsc1)C(=O)c1cc(Cl)ccc1NS(=O)(=O)c1ccc(Oc2ccccc2Cl)cc1,inhibition,[1],44.3%
O=Cc1ccc(N2CCC(C(=O)N3CCN(C(=O)C(F)(F)F)CC3)CC2)cc1,inhibition,[2],22.1%
O=C(NCCOc1ccccc1Cl)c1cc(Cl)ccc1NS(=O)(=O)c1ccc(Oc2ccccc2Cl)cc1,inhibition,[1],26.3%
Cc1c(Br)cccc1NC(=O)C1CCN(c2ccc(C=O)cc2)CC1,inhibition,[2],24.4%
Cc1ccc(Cl)c(CNC(=O)c2cc(Cl)ccc2NS(=O)(=O)c2ccc(Oc3ccccc3Cl)cc2)c1,inhibition,[1],29.4%
Nc1nccc(N2CCN(c3ncnc4sccc34)CC2)n1,inhibition,"PRVABC59, Concentration 49.5 uM, Number of replicates 2.0, Standard deviation 0.8346490453393044 %",-1.62%
same,inhibition,"PRVABC59, Concentration 99.01 uM, Number of replicates 2.0, Standard deviation 0.39347744065548357 %",0.185%
same,inhibition,"PRVABC59, Concentration 198.0 uM, Number of replicates 2.0, Standard deviation 1.4924321283568258 %",2.76%
C[C@@H](NC(=O)c1cc(Cl)ccc1NS(=O)(=O)c1ccc(Oc2ccccc2Cl)cc1)c1cccc(Br)c1,inhibition,[1],35.8%
CNC(=O)c1ccccc1NS(=O)(=O)c1ccc(Oc2ccccc2Cl)cc1,inhibition,"PRVABC59, Concentration 49.5 uM, Number of replicates 2.0, Standard deviation 3.4125681151786877 %",5.19%
same,inhibition,"PRVABC59, Concentration 99.01 uM, Number of replicates 2.0, Standard deviation 2.1023857032787294 %",2.73%
same,inhibition,"PRVABC59, Concentration 198.0 uM, Number of replicates 2.0, Standard deviation 1.6453455309076856 %",-2.99%
O=Cc1ccc(N2CCC(C(=O)Nc3cc(Cl)cc([N+](=O)[O-])c3O)CC2)cc1,inhibition,[2],93.4%
CS(=O)(=O)C1(CNC(=O)[C@]2(c3ccc(F)cc3)CCCNC2)CC1,inhibition,"PRVABC59, Concentration 49.5 uM, Number of replicates 2.0, Standard deviation 0.16738056118331518 %",-0.908%
same,inhibition,"PRVABC59, Concentration 99.01 uM, Number of replicates 2.0, Standard deviation 0.5953422319206924 %",-0.043%
same,inhibition,"PRVABC59, Concentration 198.0 uM, Number of replicates 2.0, Standard deviation 0.5896360543944994 %",0.085%
CN1CCN(CCCNC(=O)C2CCN(c3ccc(C=O)cc3)CC2)CC1,inhibition,[2],19.4%
O=Cc1ccc(N2CCC(C(=O)N3CCN(c4nsc5ccccc45)CC3)CC2)cc1,inhibition,[2],-2.82%
COc1ccccc1N1CCN(C(=O)c2ccccc2Cc2cccc3c(CO)cc(C)nc23)CC1,inhibition,"PRVABC59, Concentration 49.95 uM, Number of replicates 2.0, Standard deviation 0.5662936545494685 %",2.1%
same,inhibition,"PRVABC59, Concentration 99.9 uM, Number of replicates 2.0, Standard deviation 0.3250944897795658 %",8.89%
C[C@H](NC(=O)C1CCN(c2ccc(C=O)cc2)CC1)c1ccc2c(c1)CCCC2,inhibition,[3],8.94%
C[C@@H]1CN(CCNC(=O)C2CCN(c3ccc(C=O)cc3)CC2)C[C@H](C)O1,inhibition,[2],22.3%
COC(=O)c1cccc(C(=O)Nc2ccncc2C)c1,inhibition,"PRVABC59, Concentration 49.5 uM, Number of replicates 2.0, Standard deviation 0.9623069604443751 %",-2.85%
same,inhibition,"PRVABC59, Concentration 99.01 uM, Number of replicates 2.0, Standard deviation 2.0559193717779234 %",-1.13%
same,inhibition,"PRVABC59, Concentration 198.0 uM, Number of replicates 2.0, Standard deviation 0.22663679904083914 %",-0.144%
Cc1cnccc1NC(=O)c1c(C)nn(Cc2ccccc2)c1Cl,inhibition,"PRVABC59, Concentration 49.5 uM, Number of replicates 2.0, Standard deviation 0.753332447596911 %",-0.561%
same,inhibition,"PRVABC59, Concentration 99.01 uM, Number of replicates 2.0, Standard deviation 0.1025743025075092 %",1.32%
same,inhibition,"PRVABC59, Concentration 198.0 uM, Number of replicates 2.0, Standard deviation 0.3867554977383978 %",2.02%
Cc1cc(C)cc(OCCN(C)C(=O)c2cc(Cl)ccc2NS(=O)(=O)c2ccc(Oc3ccccc3Cl)cc2)c1,inhibition,[1],15.3%
CNC(=O)c1cn(S(=O)(=O)c2ccc(Oc3ccccc3Cl)cc2)c2ccc(Cl)cc12,inhibition,"PRVABC59, Concentration 49.5 uM, Number of replicates 2.0, Standard deviation 2.909823478813945 %",6.62%
same,inhibition,"PRVABC59, Concentration 99.01 uM, Number of replicates 2.0, Standard deviation 2.872825289317142 %",9.28%
same,inhibition,"PRVABC59, Concentration 198.0 uM, Number of replicates 2.0, Standard deviation 2.996878974524955 %",16%
C[C@H](NC(=O)c1cc(Cl)ccc1NS(=O)(=O)c1ccc(Oc2ccccc2Cl)cc1)c1cc(F)ccc1F,inhibition,[1],40.3%
Cc1ccc(Cl)c(CNC(=O)C2CCN(c3ccc(C=O)cc3)CC2)c1,inhibition,[3],8.13%
COc1cc(CC(=O)N2CCN(C(C)=O)CC2)nc(N2CCNCC2)n1,inhibition,"PRVABC59, Concentration 49.5 uM, Number of replicates 2.0, Standard deviation 1.7917997603368567 %",-5.36%
same,inhibition,"PRVABC59, Concentration 99.01 uM, Number of replicates 2.0, Standard deviation 1.123055377839713 %",-6.23%
same,inhibition,"PRVABC59, Concentration 198.0 uM, Number of replicates 2.0, Standard deviation 3.659924091579062 %",-6.93%
O=C(Nc1ccc(F)c(Br)c1)c1cc(Cl)ccc1NS(=O)(=O)c1ccc(Oc2ccccc2Cl)cc1,inhibition,[1],48.7%
CNC(=O)c1cc(Cl)cc(OC)c1NS(=O)(=O)c1ccc(Oc2ccccc2Cl)cc1,inhibition,"PRVABC59, Concentration 49.5 uM, Number of replicates 2.0, Standard deviation 0.214449202759478 %",-0.362%
same,inhibition,"PRVABC59, Concentration 99.01 uM, Number of replicates 2.0, Standard deviation 1.325070417351507 %",0.793%
same,inhibition,"PRVABC59, Concentration 198.0 uM, Number of replicates 2.0, Standard deviation 3.632092409628181 %",-2.32%
O=C(N[C@H](c1ccccc1)c1ccco1)c1cc(Cl)ccc1NS(=O)(=O)c1ccc(Oc2ccccc2Cl)cc1,inhibition,[1],53.4%
COc1ccccc1C1CCN(C(=O)C2CCN(c3ccc(C=O)cc3)CC2)CC1,inhibition,[2],25%
Cc1cccc(N2CCN(C(=O)c3cc(Cl)ccc3NS(=O)(=O)c3ccc(Oc4ccccc4Cl)cc3)C[C@@H]2C)c1,inhibition,[1],7.4%
Cc1ccc([C@H](CCO)NC(=O)C2CCN(c3ccc(C=O)cc3)CC2)cc1,inhibition,[3],20.1%
CCCCCC(=O)N[C@H](C(=O)Nc1cccc(C(N)=O)c1)c1ccc(OCc2ccccc2)cc1,inhibition,"PRVABC59, Concentration 49.5 uM, Number of replicates 2.0, Standard deviation 1.8849000413549961 %",1.48%
same,inhibition,"PRVABC59, Concentration 99.01 uM, Number of replicates 2.0, Standard deviation 2.168670599840843 %",0.647%
same,inhibition,"PRVABC59, Concentration 198.0 uM, Number of replicates 2.0, Standard deviation 0.28169942020317307 %",2.61%
O=C(NCc1cccc(Br)c1)c1cc(Cl)ccc1NS(=O)(=O)c1ccc(Oc2ccccc2Cl)cc1,inhibition,[1],28.6%
c1cncc(CN2CCC(c3c[nH]c4cccnc34)CC2)c1,inhibition,"PRVABC59, Concentration 49.5 uM, Number of replicates 2.0, Standard deviation 1.3589806231617505 %",-0.654%
same,inhibition,"PRVABC59, Concentration 99.01 uM, Number of replicates 2.0, Standard deviation 1.9362742679977742 %",-0.837%
same,inhibition,"PRVABC59, Concentration 198.0 uM, Number of replicates 2.0, Standard deviation 2.5868999732011755 %",-0.675%
COc1cc(COc2ccccc2CO)nc(N2CCNCC2)n1,inhibition,"PRVABC59, Concentration 49.5 uM, Number of replicates 2.0, Standard deviation 2.0450547782422097 %",-0.123%
same,inhibition,"PRVABC59, Concentration 99.01 uM, Number of replicates 2.0, Standard deviation 1.583334198344031 %",3.21%
same,inhibition,"PRVABC59, Concentration 198.0 uM, Number of replicates 2.0, Standard deviation 0.5332257429700031 %",8.92%
CN1CCC(N(C(=O)c2cc(Cl)ccc2NS(=O)(=O)c2ccc(Oc3ccccc3Cl)cc2)C2CCN(C)CC2)CC1,inhibition,[1],10%
O=Cc1ccc(N2CCC(C(=O)N[C@H]3CCc4ccccc4NC3=O)CC2)cc1,inhibition,[2],29.5%
O=C(NCc1cccc(OC(F)F)c1)c1cc(Cl)ccc1NS(=O)(=O)c1ccc(Oc2ccccc2Cl)cc1,inhibition,[1],33.5%
O=C(c1ccc(F)cc1)[C@H]1CCCN(C(=O)c2cc(Cl)ccc2NS(=O)(=O)c2ccc(Oc3ccccc3Cl)cc2)C1,inhibition,[1],10.2%
O=Cc1ccc(N2CCC(C(=O)N(Cc3ccccc3)[C@@H](CO)c3ccccc3)CC2)cc1,inhibition,[2],24.2%
